Measured values as given in a collection of fitness landscapes (doi:10.1126/science.1257360).
The list shows a part of the results.

B1: PhoQ; a variant is named by its letters at X, in order, P23837 (parent)
chain: MKKLLRLFFPLSLRVRFLLATAAVVLVLSLAYGMVALIGYSVSFDKTTFRLLRGESNLFYTLAKWENNKLHVELPENIDKQSPTMTLIYDENGQLLWAQRDVPWLMKMIQPDWLKSNGFHEIEADVNDTSLLLSGDHSIQQQLQEVREDDDDAEMTHSVAVNVYPATSRMPKLTIVVVDTIPVELKSSYMVWSWFIYVLSANLLLVIPLLWVAAWWSLRPIEALAKEVRELEEHNRELLNPATTRELTSLVRNLNRLLKSERERYDKYRTTLTDLTHSLKTPLXXLQXXLRSLRSEKMSVSDAEPVMLEQISRISQQIGYYLHRASMRGGTLLSRELHPVAPLLDNLTSALNKVYQRKGVNISLDISPEISFVGEQNDFVEVMGNVLDNACKYCLEFVEISARQTDEHLYIVVEDDGPGIPLSKREVIFDRGQRVDTLRPGQGVGLAVAREITEQYEGKIVAGESMLGGARMEVIFGRQHSAPKDE

Variants of: B1
Experiment: enrichment ratio after two sorts for PhoP signalling (ratio (wild type AVST 3.29)); higher = more functional
Conditions: with PhoP (E. coli)

Variant	enrichment ratio
LAPD	≤ 0.25
STMQ	12
NTNR	≤ 0.25
DNFI	≤ 0.25
DLIR	≤ 0.25
GENF	≤ 0.25
VCRM	≤ 0.25
KRFF	≤ 0.25
FSMI	4.67
WMFE	≤ 0.25
HTHR	≤ 0.25
EQAF	≤ 0.25
GHVG	≤ 0.25
LRWE	≤ 0.25
FYPK	≤ 0.25
GFDR	≤ 0.25
MVCT	≤ 0.25
TALF	10.5
LCRP	≤ 0.25
WMSW	≤ 0.25
KCSW	≤ 0.25
LGAS	≤ 0.25
HAKQ	≤ 0.25
NELC	5.14

Variant	enrichment ratio
YAPK	≤ 0.25
QWHA	≤ 0.25
FPDH	≤ 0.25
KIRF	≤ 0.25
ARHV	≤ 0.25
NSLW	≤ 0.25
SPSE	≤ 0.25
EMAT	≤ 0.25
RATF	≤ 0.25
VMGI	≤ 0.25
DFHC	≤ 0.25
KILA	≤ 0.25
PKKH	≤ 0.25
GAWW	≤ 0.25
NPNI	≤ 0.25
THGV	1.56
ILYM	≤ 0.25
YHCF	≤ 0.25
SKQS	≤ 0.25
EVLG	≤ 0.25
WASY	≤ 0.25
AKSW	≤ 0.25
IAHA	≤ 0.25
INAY	≤ 0.25

Variant	enrichment ratio
VGYS	≤ 0.25
TRFV	≤ 0.25
HCSW	≤ 0.25
MMQE	≤ 0.25
GMMR	≤ 0.25
MPDI	≤ 0.25
QSTR	≤ 0.25
ATLI	15.7
YMCC	≤ 0.25
RTAE	≤ 0.25
MMWN	≤ 0.25
FIGA	≤ 0.25
LKTS	≤ 0.25
AVLR	7.21
FTGQ	≤ 0.25
PKMH	≤ 0.25
RMWS	≤ 0.25
PWYQ	≤ 0.25
REWV	≤ 0.25
AGFS	≤ 0.25
KQPC	≤ 0.25
YHKT	≤ 0.25
MGRY	≤ 0.25
DMHS	≤ 0.25

Variant	enrichment ratio
KCMT	≤ 0.25
VEHW	≤ 0.25
RNLY	≤ 0.25
TLYF	≤ 0.25
YKNF	≤ 0.25
QPVA	≤ 0.25
DTRI	1.89
GQVW	≤ 0.25
AHSE	≤ 0.25
RWEG	≤ 0.25
EFLQ	≤ 0.25
AYVM	≤ 0.25
DVQK	≤ 0.25
LVYY	≤ 0.25
HQGV	1.02
LCYI	0.711
EHHY	≤ 0.25
VIVG	≤ 0.25
HHSP	≤ 0.25
MWMH	≤ 0.25
AVPT	≤ 0.25
DMHV	≤ 0.25
GKQR	≤ 0.25
QLGA	≤ 0.25

Variant	enrichment ratio
RYFC	≤ 0.25
EEVA	≤ 0.25
TQWC	29.7
GIPM	≤ 0.25
EVFE	≤ 0.25
IAIC	≤ 0.25
PQAS	≤ 0.25
HYQD	≤ 0.25
TGDV	≤ 0.25
HIPV	≤ 0.25
VWTT	≤ 0.25
RTRS	≤ 0.25
MRWQ	≤ 0.25
FVDW	≤ 0.25
DCHY	≤ 0.25
AFGV	≤ 0.25
YHKF	≤ 0.25
KDLV	≤ 0.25
DLTV	≤ 0.25
YYCW	≤ 0.25
PIDP	≤ 0.25
YDLS	0.28
SYDW	≤ 0.25
VECY	≤ 0.25

Variant	enrichment ratio
ISSS	≤ 0.25
FVLP	≤ 0.25
LIMN	≤ 0.25
FCCK	4.54
DFNE	≤ 0.25
DYQE	≤ 0.25
YASN	≤ 0.25
YYKL	≤ 0.25
QSHI	15.9
YHHP	≤ 0.25
VDDF	≤ 0.25
NAIF	≤ 0.25
DSDA	≤ 0.25
YNVN	≤ 0.25
MPFW	≤ 0.25
LAML	6.38
STQA	≤ 0.25
AFVF	0.305
WCIR	≤ 0.25
TGWC	13.8
HLKA	≤ 0.25
PEIM	≤ 0.25
PLHV	≤ 0.25
GCTC	≤ 0.25

Variant	enrichment ratio
SMED	≤ 0.25
YDAR	≤ 0.25
RFHM	≤ 0.25
LSMK	≤ 0.25
MPEW	≤ 0.25
IYFM	≤ 0.25
PWIV	≤ 0.25
WRIR	≤ 0.25
SIAY	9.84
CIFI	≤ 0.25
TVIK	≤ 0.25
NTAT	≤ 0.25
EVPF	≤ 0.25
VVFI	≤ 0.25
VHQP	≤ 0.25
AWKY	≤ 0.25
FDDM	≤ 0.25
EPMI	≤ 0.25
GDDM	≤ 0.25
SATF	11.2
DDAA	≤ 0.25
LCLV	≤ 0.25
YQMS	≤ 0.25
GDMC	4.26

Variant	enrichment ratio
QGKR	≤ 0.25
LKGH	≤ 0.25
QVIV	≤ 0.25
SMEE	≤ 0.25
VQMP	≤ 0.25
DWVM	≤ 0.25
QRSV	≤ 0.25
MYHE	≤ 0.25
RTPL	≤ 0.25
FFKD	≤ 0.25
TNNA	5.22
PYRD	≤ 0.25
VGME	≤ 0.25
QAMW	≤ 0.25
QKQP	≤ 0.25
VFDW	≤ 0.25
STKA	≤ 0.25
QGQF	≤ 0.25
RWRT	≤ 0.25
YCFC	≤ 0.25
MHTQ	≤ 0.25
QITI	≤ 0.25
QFDE	≤ 0.25
AFGN	≤ 0.25

Variant	enrichment ratio
VSWL	1.26
TNTR	≤ 0.25
TYQM	11.1
QDTW	≤ 0.25
WAYR	≤ 0.25
LKLS	≤ 0.25
YLFE	≤ 0.25
YFQQ	≤ 0.25
AYNG	≤ 0.25
EDIG	≤ 0.25
FVGM	≤ 0.25
VRQM	≤ 0.25
INLF	0.354
WVCS	≤ 0.25
TQIV	1.59
QPFF	≤ 0.25
IVCH	≤ 0.25
WWFM	≤ 0.25
MHFF	≤ 0.25
CYCF	≤ 0.25
SWHR	≤ 0.25
LILA	≤ 0.25
GRIA	≤ 0.25
IEDP	≤ 0.25

Variant	enrichment ratio
FDIP	≤ 0.25
ILDN	≤ 0.25
TKQH	≤ 0.25
EAAP	≤ 0.25
WRLF	≤ 0.25
WDYE	≤ 0.25
YFCA	≤ 0.25
MWLR	≤ 0.25
VKWS	≤ 0.25
NHTC	≤ 0.25
ITQN	≤ 0.25
KFCI	≤ 0.25
KPDS	≤ 0.25
RRPN	≤ 0.25
YDAS	≤ 0.25
GQQD	≤ 0.25
KLER	0.976
FWKA	≤ 0.25
FQMF	≤ 0.25
MKFL	0.755
MKSW	≤ 0.25
NKAI	≤ 0.25
HIIR	≤ 0.25
NKHS	≤ 0.25

Variant	enrichment ratio
KAVK	≤ 0.25
HMVM	≤ 0.25
DSGK	≤ 0.25
DQWY	≤ 0.25
LWRT	≤ 0.25
DGLW	2.73
YTRD	≤ 0.25
VAIF	≤ 0.25
RHVC	≤ 0.25
RTKY	≤ 0.25
VTLQ	11.3
SFSY	≤ 0.25
PFHK	≤ 0.25
HFHL	≤ 0.25
IARV	≤ 0.25
SAWF	≤ 0.25
NSDN	≤ 0.25
FHLM	≤ 0.25
WKDY	≤ 0.25
KRWL	≤ 0.25
EAYV	≤ 0.25
EMDT	≤ 0.25
IWLA	≤ 0.25
AHYL	≤ 0.25

Variant	enrichment ratio
TRHW	≤ 0.25
NVTM	≤ 0.25
GEEY	≤ 0.25
RMRN	≤ 0.25
YAMR	≤ 0.25
SEIK	0.781
VCRQ	≤ 0.25
FDTW	≤ 0.25
SHFM	≤ 0.25
EPLF	≤ 0.25
VKKS	≤ 0.25
VNQE	≤ 0.25
NPVM	≤ 0.25
SLPH	≤ 0.25
GRNH	≤ 0.25
DSLV	≤ 0.25
FDWM	≤ 0.25
AFQH	≤ 0.25
VLPM	≤ 0.25
TNDN	≤ 0.25
DSYP	≤ 0.25
RFVH	≤ 0.25
YGMP	≤ 0.25
YTQF	≤ 0.25

Variant	enrichment ratio
LGGS	≤ 0.25
YFIS	≤ 0.25
DWFS	≤ 0.25
WPLM	≤ 0.25
NHWW	≤ 0.25
IHIP	≤ 0.25
RKIW	≤ 0.25
LEGV	≤ 0.25
HDSD	≤ 0.25
KTRI	≤ 0.25
MGHQ	≤ 0.25
LHRK	≤ 0.25
IDSK	≤ 0.25
DRCN	≤ 0.25
GVPK	≤ 0.25
YHFP	≤ 0.25
RFDY	≤ 0.25
WGPH	≤ 0.25
